This is one part of the list. Sequences were assembled here from the parent chain. Values near 0.05 are background.
B1: TEV protease; numbered along this chain (parent)
chain: MGESLFKGPRDYNPISSSICHLTNESDGHTTSLYGIGFGPFIITNKHLFRRNNGTLVVQSLHGVFKVKDTTTLQQHLVDGRDMIIIRMPKDFPPFPQKLKFREPQREERICLVTTNFQTKSMSSMVSDTSCTFPSGDGIFWKHWIQTKDGQCGSPLVSTRDGFIVGIHSASNFTNTNNYFTSVPKNFMELLTNQEAQQWVSGWRLNADSVLWGGHKVFMVKPEEPFQPVKEATQL

Variants of: B1
Test: raw area under fraction-flipped curve 0-4 h after induction (AUC4h, not background-subtracted), DNA-recorder readout of cleavage of the substrate (dimensionless); higher = more cleavage of the substrate by the protease variant
Details: temperature: 34 °C; time window: 0-4 h after rhamnose induction
Protocol: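 In vivo DNA recorder in E. coli TOP10(DE3) ΔrhaA at 34 °C. Each TEVp single-site mutant (parent TEVp 0) is paired with a single-site variant of the 7-mer TEVs (canonical ENLYFQ|S). The substrate sits between flexible linkers in a Bxb1-sfGFP-TEVs-SsrA fusion, so cleavage stabilises Bxb1 and speeds flipping of a recombination array, read by NGS. The value is the raw area under the fraction-flipped curve over 0-4 h after rhamnose induction (AUC4h), with ≥20 reads per time point. It is not background-subtracted; inactive controls average about 0.047.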
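Note: Bxb1 expression induced with 0.2% (w/v) L-rhamnose at OD600 near 0.5, cultures sampled hourly, flipped fraction per protease–substrate barcode pair counted by paired-end Illumina sequencing.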

| Variant | area with substrate CNLYFQS | area with substrate DNLYFQS | area with substrate FNLYFQS | area with substrate GNLYFQS | area with substrate HNLYFQS | area with substrate INLYFQS | area with substrate KNLYFQS | area with substrate LNLYFQS | area with substrate MNLYFQS | area with substrate NNLYFQS | area with substrate PNLYFQS | area with substrate QNLYFQS | area with substrate RNLYFQS | area with substrate SNLYFQS | area with substrate TNLYFQS | area with substrate VNLYFQS | area with substrate WNLYFQS | area with substrate YNLYFQS |
| --- | --- | --- | --- | --- | --- | --- | --- | --- | --- | --- | --- | --- | --- | --- | --- | --- | --- | --- |
| MGESLFKGPRDYNPISSSICHLTNESDGHTTSLYGIGFGPFIITNKHLFRRNNGTLVVQSLHGVFKVKDTTTLQQHLVDGRDMIIIRMPKDFPPFPQKLKFREPQREERICLVTTNFQTKSMSSMVSDTSCTFPSGDGIFWKHWIQTKDGQCGSPLVSTRDGFIVGIHSASNFTNTSNYFTSVPKNFMELLTNQEAQQWVSGWRLNADSVLWGGHKVFMVKPEEPFQPVKEATQL [N177S] | 0.0562 | 0.0602 | 0.046 | 0.0743 | 0.0506 | 0.0519 | 0.069 | 0.0553 | 0.0525 | 0.0495 | 0.0631 | 0.0475 | 0.0514 | 0.051 | 0.0497 | 0.0383 | 0.0524 | 0.0422 |
| MGESLFKGPRDYNPISSSICHLTNESDGHTTSLYGIGFGPFIITNKHLFRRNNGTLVVQSLHGVFKVKDTTTLQQHLVDGRDMIIIRMPKDFPPFPQKLKFREPQREERICLVTTNFQTKSMSSMVSDTSCTFPSGDGIFWKHWIQTKDGQCGSPLVSTRDGFIVGIHSASNFTNTNNYNTSVPKNFMELLTNQEAQQWVSGWRLNADSVLWGGHKVFMVKPEEPFQPVKEATQL [F180N] | 0.0587 | 0.0711 | 0.0599 | 0.0534 | 0.0531 | 0.0254 | – | – | 0.0443 | – | 0.0551 | – | – | 0.0614 | 0.0575 | – | 0.0445 | 0.0537 |
| MGESLFKGPRDYNPISSSICHLTNESDGHTTSLYGIGFGPFIITNKHLFRRNNGTLVVQSLHGVFKVKDTTTLQQHLVDGRDMIIIRMPKDFPPFPQKLKFREPQREERICLVTTNFQTKSMSSMVSDTSCTFPSGDGIFWKHWIQTKDGQCGSPLVSTRDGFIVGIHSASNFTNTNNYFTSHPKNFMELLTNQEAQQWVSGWRLNADSVLWGGHKVFMVKPEEPFQPVKEATQL [V183H] | 0.0479 | 0.0455 | – | 0.0368 | – | 0.054 | 0.0462 | – | 0.0629 | – | 0.0585 | 0.0639 | – | – | 0.0525 | 0.0349 | 0.0576 | 0.0574 |
| MGESLFKGPRDYNPISSSICHLTNESDGHTTSLYGIGFGPFIITNKHLFRRNNGTLVVQSLHGVFKVKDTTTLQQHLVDGRDMIIIRMPKDFPPFPQKLKFREPQREERICLVTTNFQTKSMSSMVSDTSCTFPSGDGIFWKHWIQTKDGQCGSPLVSTRDGFIVGIHSASNFTNTNNYFTSVPGNFMELLTNQEAQQWVSGWRLNADSVLWGGHKVFMVKPEEPFQPVKEATQL [K185G] | 0.0814 | 0.0532 | 0.0617 | – | 0.0635 | 0.0637 | 0.0738 | 0.062 | – | – | 0.0722 | 0.0832 | 0.074 | 0.0685 | – | – | – | 0.0515 |
| MGESLFKGPRDYNPISSSICHLTNESDGHTTSLYGIGFGPFIITNKHLFRRNNGTLVVQSLHGVFKVKDTTTLQQHLVDGRDMIIIRMPKDFPPFPQKLKFREPQREERICLVTTNFQTKSMSSMVSDTSCTFPSGDGIFWKHWIQTKDGQCGSPLVSTRDGFIVGIHSASNFTNTNNYFTSVPKNMMELLTNQEAQQWVSGWRLNADSVLWGGHKVFMVKPEEPFQPVKEATQL [F187M] | 0.0855 | 0.0657 | – | 0.0693 | 0.0699 | – | 0.0672 | – | 0.0635 | 0.0725 | 0.068 | – | – | 0.105 | 0.0377 | – | 0.0564 | 0.0676 |
| MGESLFKGPRDYNPISSSICHLTNESDGHTTSLYGIGFGPFIITNKHLFRRNNGTLVVQSLHGVFKVKDTTTLQQHLVDGRDMIIIRMPKDFPPFPQKLKFREPQREERICLVTTNFQTKSMSSMVSDTSCTFPSGDGIFWKHWIQTKDGQCGSPLVSTRDGFIVGIHSASNFTNTNNYFTSVPKNFPELLTNQEAQQWVSGWRLNADSVLWGGHKVFMVKPEEPFQPVKEATQL [M188P] | 0.0236 | 0.008 | – | – | – | – | – | – | – | – | 0.0613 | – | – | – | 0.0689 | 0.0664 | – | – |
| MGESLFKGPRDYNPISSSICHLTNESDGHTTSLYGIGFGPFIITNKHLFRRNNGTLVVQSLHGVFKVKDTTTLQQHLVDGRDMIIIRMPKDFPPFPQKLKFREPQREERICLVTTNFQTKSMSSMVSDTSCTFPSGDGIFWKHWIQTKDGQCGSPLVSTRDGFIVGIHSASNFTNTNNYFTSVPKNFMEMLTNQEAQQWVSGWRLNADSVLWGGHKVFMVKPEEPFQPVKEATQL [L190M] | 0.0824 | 0.0819 | 0.0584 | – | 0.0704 | 0.0659 | – | 0.0664 | – | – | 0.0754 | – | 0.0547 | 0.051 | 0.0648 | 0.0594 | 0.0576 | 0.0606 |
| MGESLFKGPRDYNPISSSICHLTNESDGHTTSLYGIGFGPFIITNKHLFRRNNGTLVVQSLHGVFKVKDTTTLQQHLVDGRDMIIIRMPKDFPPFPQKLKFREPQREERICLVTTNFQTKSMSSMVSDTSCTFPSGDGIFWKHWIQTKDGQCGSPLVSTRDGFIVGIHSASNFTNTNNYFTSVPKNFMEYLTNQEAQQWVSGWRLNADSVLWGGHKVFMVKPEEPFQPVKEATQL [L190Y] | 0.0626 | 0.0749 | – | 0.0737 | 0.0556 | 0.0551 | – | – | 0.059 | 0.063 | 0.0479 | – | 0.0615 | – | 0.0694 | – | 0.0525 | 0.0262 |
| MGESLFKGPRDYNPISSSICHLTNESDGHTTSLYGIGFGPFIITNKHLFRRNNGTLVVQSLHGVFKVKDTTTLQQHLVDGRDMIIIRMPKDFPPFPQKLKFREPQREERICLVTTNFQTKSMSSMVSDTSCTFPSGDGIFWKHWIQTKDGQCGSPLVSTRDGFIVGIHSASNFTNTNNYFTSVPKNFMELATNQEAQQWVSGWRLNADSVLWGGHKVFMVKPEEPFQPVKEATQL [L191A] | 0.079 | 0.0583 | – | 0.0495 | 0.0534 | – | – | – | – | 0.0529 | – | – | – | – | 0.0637 | – | – | 0.0502 |

From the supplement of paper PMC12217912
